Data as given in PubChem BioAssay AID686978 (National Center for Advancing Translational Sciences (NCATS), 2013).
About 64,000 (15%) of roughly 420,000 compounds were called active. Inconclusive means that the source gave no clear call. Such entries were picked first, then a sample of the others. The call rests on the fitted dose curve; in most records, active means well fitted inhibition curve with a large enough effect; inconclusive means small, poorly fitted or top-dose-only effect; inactive means flat fitted curve, though single readings scatter. No potency is given beside an inconclusive call; the fits are too rough.

Test: qHTS for Inhibitors of human tyrosyl-DNA phosphodiesterase 1 (TDP1): qHTS in cells in absence of CPT; further: nearly all actives have a fitted effect of over 55% in size
Details: DT40 Tdp1-/- hTDP1 cells, no CPT, ATP luminescence, 48 h; activity change, negative = growth inhibition: at 46.2 µM (top of the series) unless noted
In short: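 Cells were dispensed at 400 per well, compounds added by pin tool, plates incubated ≥48 hr at 37 °C, then CellTiter-Glo added for 30 min at room temperature before luminescence reading. Line: DT40 Tdp1-/- complemented with hTDP1; camptothecin omitted.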
On the % scale 0 is the no-effect control and ±100 the full control effect; potency means the concentration at half of the fitted maximal effect; tags describe the fitted curve by direction and shape.

Compound	Potency	activity change, negative = growth inhibition
Cn1c(SCc2ccccc2F)nc2ccccc2c1=O	inconclusive [inhibitor, partial curve]	
O=C(Nc1cccc(Cl)c1)c1ccc2nc(Cc3ccccc3)oc2c1	active: 20.6 µM	
CC(C)c1ccc(CC(=O)N2CCC2(C)C(=O)Nc2ccccc2)cc1 (stereo not given)	inconclusive [inhibitor, single point]	
COc1ccc(C(=O)Nc2ccc(S(=O)(=O)N3CCCCC3)cc2)cc1	inconclusive [inhibitor, partial curve]	
COc1ccc2[nH]c3c(c2c1)CCN1C(=O)N([C@@H](C)C(=O)NCc2c(F)cccc2Cl)C(=O)[C@]31C	inconclusive [inhibitor, single point]	
CSc1c(CC(=O)Nc2ccccc2)n(Cc2ccccc2)c2ccccc12	inconclusive [inhibitor, single point]	
Cc1ccccc1Nc1ncnc2c1c(-c1ccccc1)cn2-c1ccc(F)cc1	inconclusive [inhibitor, single point]	
O=C(CN1CCOCC1)N/N=C/c1ccc(-c2cccc(Cl)c2Cl)o1	inactive	
CC1CCN(Cc2nnc(-c3cccc(Br)c3)o2)CC1	inconclusive [inhibitor, single point]	
CSc1ccc(CN2CCC(C)(Oc3ccccc3C)C2)cc1 (stereo not given)	inconclusive [inhibitor, single point]	
CC(C)COC(=O)c1ccc(N2C(=O)c3ccccc3C2=O)cc1	inactive	
O=S(Cc1ccc(Cl)cc1)CC(O)COCc1ccc(Cl)cc1 (stereo not given)	inconclusive [inhibitor, single point]	
N#Cc1cc2c(nc1SCC(=O)Nc1sc3c(c1C#N)CCC3)CCCC2	active: 11.6 µM	
CCOc1ccc(CCNc2ncnc3onc(-c4ccc(F)cc4)c23)cc1OCC	active: 23.1 µM	
Cn1c(=O)n(Cc2ccco2)c(=N)c2c3c(sc21)CCCC3	inconclusive [inhibitor, partial curve]	
Cc1ncc(COC(=O)C(C)C)c2cc(C(=O)Nc3ccccc3C(F)(F)F)c(=O)oc12	inactive	
CCCCn1c(CNC(=O)C23CC4CC(CC(C4)C2)C3)nnc1SCC(=O)Nc1ccccc1	inconclusive [inhibitor, single point]	
COc1ccc(NC(=O)c2cc(CN3C(=O)c4ccccc4C3=O)ccc2OC)cn1	inconclusive [inhibitor, single point]	
Cc1c(C#N)c(N)nc2c3c(sc12)NC(=O)CC3c1ccc(Cl)cc1 (stereo not given)	inconclusive [inhibitor, single point]	
O=C(c1cnccn1)N1CCC[C@@]2(CCN(C(c3ccccc3)c3ccccc3)C2)C1	inconclusive [inhibitor, single point]	
COc1ccccc1C(=O)CC(=O)c1ccccc1	inconclusive [inhibitor, partial curve]	
Cc1ccccc1NC(=O)CCC(=O)N1CC(C)Sc2ccccc21 (stereo not given)	inconclusive [inhibitor, single point]	
Cc1ccc2oc(=O)c3cc(C(=O)NCCCN4CCCC(C)C4)sc3c2c1 (stereo not given)	inconclusive [inhibitor, single point]	
O=C(Nc1cccc(F)c1)c1ccc(S(=O)(=O)N2CCCCC2)cc1		inconclusive: -32.3% [inhibitor]

Compound	Potency	activity change, negative = growth inhibition
CCC(=O)c1ccc(CCCCCC(=O)O)s1	inactive	
COc1ccccc1NC(=S)NC(=O)CCCOc1ccc(Cl)cc1Cl	inconclusive [inhibitor, single point]	
Fc1ccc(-c2cc(C(F)(F)F)nc(NCC3CCCO3)n2)cc1 (stereo not given)	inactive	
CNc1c(Br)cc(C(O)C2=CCc3ccccc32)cc1Br (stereo not given)	active: 4.47 µM	
COc1ccc(C=O)cc1Oc1nc(Cl)ncc1F	inconclusive [inhibitor, single point]	
O=C(O)c1ccccc1C(=O)Nc1ccc(-n2nccc2C(F)(F)F)cc1	inactive	
COc1ccc(CNC(=O)c2cc(=O)c3cc(C)ccc3o2)cc1	inconclusive [inhibitor, single point]	
CCOC(=O)c1ccc(NC(=O)C2(S(=O)(=O)c3ccc(Cl)cc3)CC2)cc1	inconclusive [inhibitor, partial curve]	
Cc1cccc(C)c1NS(=O)(=O)c1ccc(NS(=O)(=O)c2ccc3c(c2)OCCO3)cc1	inconclusive [inhibitor, single point]	
CCCc1[nH]n(-c2ccc([N+](=O)[O-])cc2)c(=O)c1C=NCCc1ccc(OC)c(OC)c1	inconclusive [inhibitor, single point]	
COc1ccc(C(=O)N(c2ccc(OC)cc2)S(=O)(=O)c2ccc3c(c2)n(C)c(=O)n3C)cc1	inconclusive [inhibitor, single point]	
O=S(=O)(Nc1cccc(-c2cn3c(n2)SCC3)c1)c1cccs1		inconclusive: -32.3% [inhibitor]
COc1ccc(C(=O)/C=C2\C(=O)Nc3ccc(Br)cc32)cc1	active: 18.4 µM	
COc1ccc(COC(=O)c2cc(S(=O)(=O)N3CCCCC3)ccc2N2CCOCC2)cc1	active: 16.4 µM	
Cc1ccc(-c2nnc(Nc3ccccc3)c3ccccc23)cc1S(=O)(=O)NCc1nc2ccccc2[nH]1	inconclusive [inhibitor, single point]	
CCOC(=O)COc1ccc([N+](=O)[O-])cc1-c1ccnc2cc(-c3ccc(C)cc3)nn12	inactive	
Cc1cccc(C(=O)Nc2c(C#N)c(C)c(C)n2Cc2ccccc2)c1	active: 16.4 µM	
COc1cc(/C=N/NC(=O)c2ccccc2)ccc1O	inactive	
O=C1CCCC(=O)C1C(c1ccc(Cl)cc1)C1C(=O)CCCC1=O	inconclusive [inhibitor, single point]	
O=C(c1cc2ccc3cccnc3c2[nH]1)N1CCN(c2ccc(Cl)cc2)CC1	inconclusive [inhibitor, full curve, poor fit]	
C=CCn1c(SCC(=O)c2cccs2)nc2sc(CC)cc2c1=O	active: 16.4 µM	
CCc1nc2ccc(C(=O)Nc3ccc(OC)c(OC)c3)cn2c1N(C)Cc1ccc(N(C)C)cc1	inconclusive [inhibitor, single point]	
Cc1c(Cl)cccc1NC(=O)Cn1nnc2sc3c(c2c1=O)CCCC3	inactive	
CCOc1ccc(/C=N/OCC(=O)NCc2cccs2)cc1	inconclusive [inhibitor, single point]	

Compound	Potency	activity change, negative = growth inhibition
Cc1oc2c(O)c(O)ccc2c(=O)c1-c1cnn(-c2ccccc2)c1	active: 18.4 µM	
Cc1cccc(N=Nc2cnc(N)s2)c1	inconclusive [inhibitor, partial curve, poor fit]	
CCOc1ccc(-n2c(SCC(=O)NC(C)CC)nc3n[nH]c(C)c3c2=N)cc1 (stereo not given)	active: 18.4 µM	
CN(C)CCCCOc1ccc(Br)cc1Cl	inconclusive [inhibitor, single point]	
COc1ccccc1C(=O)Nc1cccc(C(=O)OCc2cc(=O)n3nc(C)sc3n2)c1	inactive	
C/C=C\C=C\C(=O)N1CC2(CC(c3cccc(NC(=O)CC)c3)=NO2)C[C@H]1C(N)=O (stereo not given in full)	inactive	
CCOc1ccc(N(C(C)C(=O)N2CCCCCC2)S(C)(=O)=O)cc1 (stereo not given)	inconclusive [inhibitor, partial curve]	
O=C(CCc1nc(-c2ccccc2F)no1)NC1CCCCCC1	active: 29.1 µM	
Cc1cccc(N=Nc2c(N)n[nH]c2-c2ccc(Cl)cc2)c1	inconclusive [inhibitor, single point]	
CCn1c(SCc2cccc(C)c2)nnc1-c1ccc(C)cc1	inconclusive [inhibitor, single point]	
O=C(NC(Cc1ccccc1)C(=O)N1CCN(c2ccc(F)cc2)CC1)c1ccccc1 (stereo not given)	active: 25.9 µM	
NC(=O)CSc1ncc2c(n1)-c1ccccc1N(Cc1ccc(Cl)cc1)S2(=O)=O	inconclusive [inhibitor, single point]	
O=C(Nc1cccc(Cl)c1Cl)c1cc(S(=O)(=O)NCCc2ccccc2)ccc1F	inconclusive [inhibitor, single point]	
CCOC(=O)c1ccc(N=Nc2c(C)[nH]n(-c3ccccc3)c2=O)cc1	inconclusive [inhibitor, single point]	
O=S1(=O)CC(N2CCC(Cc3ccccc3)CC2)CN1C1CCCCC1 (stereo not given)	inconclusive [inhibitor, single point]	
Cc1ccc(/C=N/NC(=O)c2cccs2)cc1[N+](=O)[O-]	active: 16.4 µM	
CCCCCC(O)CCCC(=O)O (stereo not given)	inactive	
Cc1nonc1NC(=O)CSc1nc2ccc(Cl)cc2[nH]1	inconclusive [inhibitor, single point]	
COc1ccc(S(=O)(=O)N2CCC(C)CC2)cc1OC	inactive	
COc1ccc2[nH]c3c(c2c1)CCN1C(=O)C(CC(=O)NCc2ccc(OC)c(OC)c2)C[C@H](C(=O)N(C(C)C)C(C)C)[C@@]31C (stereo not given in full)	inconclusive [inhibitor, single point]	
COc1ccc(CNCc2cc(C)c(OC)cc2C)c(OC)c1	active: 11.6 µM	
CC(C)c1noc(-c2ccccc2OCC(=O)Nc2ccccc2[N+](=O)[O-])n1	inconclusive [inhibitor, single point]	
